Experimental data as given in the RNAGym collection of RNA variant scans (doi:10.7554/elife.90254).
Read counts are not given, so values of variants with three or more changes are uncertain.

B1: OR4K15 (parent)
chain: GUUAACGGUCAUAGGCCAUGGAAACUAGGAGCACCAUUUCGCUGCCAGUGAAGAAAUGAACAAAGAAAAUCUGGGCCAGGCAGGCAUCAAAAGAAAUAGUCUUGCGCUCAACCAGAAAGUCUGUAAUCAUUUUAAGGGUA

Variants of: B1
Assay: self-cleavage, relative activity (ratio to wild type); higher = more cleavage; in vitro, sequencing; the parent is a self-cleaving ribozyme

Variant	self-cleavage
A51G A95G U133C	2.83
A27G A33G U43C U49A A51G A55G	0.15
A63G A67G A92G U122A	0.47
A13G A24G U108G U133C	0.05
A52G A60U A116G	1.46
A23G A62G A90G	0.69
A24G A51G A82G	0.44
U2C U108C A114C U131C	0.01
A30G C105U U127A	0.49
U2C A78U U102C	0.64
U38C G50U A59G U87C A110U	0.66
A4G A51U A54U A62G A66U	1.26
U2A U9C A52G A59U U102C U130C	1.42
A23G A24G A51G A66G U72G A86C	0.09
A11G A23U U131C U132C	1
U39A A54U U108C	0
A33G A96G A118G	0.09
A51G A95G A96C A117G	0.61
U19C A64U A86G	0.83
U2C A11G A13G	0.84
C17U U37C U38C	1.18
A5G G44A U70A A86U A89U A111G A129U	0.03
A5G A66G A114G G137A	0.55
A18U A89G U100C A135U	1.59
U38C U57C A62G	1.24

Variant	self-cleavage
U38C A125G U127C A135U	0.2
A18G U132C A134G	1.32
U72A A111G A134G	0
U38C A51G A78G A92G A95G A126G	0.12
U87C U100A A111C A117G	0.01
A4G A23G G83A U87C U127A	1.96
A54G A55G U102C U108C	0.03
A33C A63G A68G C77U	1.46
G74C A114G A129U	0.01
A60G A64U A67G A90U U131C	0.5
A5G U19C A86G U87C	1.02
A24G A62U A111G	0.03
A11G A89G A91G A116G	0.36
A5G A24G U38C A52G A78G A114C	0.06
U2C A5G A82G	0.52
U2G A64G A134G	0.89
C32U U39C A51G A95U A96G U100C A117G	0.68
C10U A22G A47G U131C	0.31
C40U G115U G119A	0.63
U49G A91G A129G	0.47
A5U A54G A90G U132A	0.97
U39C U43A A54C U100C G123A U130C	1.94
U2A A62U A68G A86G	1.23
U9C A33G U38C U39C A59U A90G U131C	0.19
U2C A11G U43C	1

Variant	self-cleavage
A23G A55G A63G	1.39
U12C A62G A66G A114U A134G	0.12
U26C G74A U120C	0.05
A22G A51G U102C C109A U130C	0.55
A66U U70A A114U	0.04
A5U U38C A90U	1.13
U57A A60G U72C	0.17
A52U A117C A118G	0.22
U9C U19C A51U	0.91
A51U U70C A111G	0.04
A52G A63G U103C	0.41
U49C A56G A66G A69G A116G	0.18
A24G U43C A51G A52G U87C	0.48
A90G A91G U120A	1.81
A27G A67G U127C	0.85
A90G U100C A129U	1.21
A69G U102C A110U A111G	0.01
U39C A67G A78U	0.46
U19C C32G A59G A67G A116U	0.18
A18C C40A A78G	0.27
C25U A117G A126G	1.49
A82U U100C A117G	0.43
A27G U39C C46U A51U A54U	1.53
A4G A51G A118U	0.35
U37C A95G U103C	1.59

Variant	self-cleavage
A90G A95G U127A	1.18
U38A A82G C128A U130C	0.26
U57C U100C A110G A126C	0.08
G44C A94G A96G A116G	0.3
A27G A36G U70C A111G	0.06
U72C A91G U120C A125G	0.03
U9C U12C A23C U139C	0.87
A22G U26C A60G A67G A98C	1.52
U26A U49G U100C	0.71
A52G A90G A92G	0.89
A27G U43A A126U	1.41
G41A A59G U70C	0.61
A5G A62G A94G U103G A114U	0.09
A22U A54G A64G A67G G83U U102C U103C	0.04
A36U A60U A64G	0.98
A56G U87C C113U	0.18
U39C A47U C77U A116G U130C	0.42
A36G A51U A117G	2.19
U39A A60G A64G A68G A117G	1.61
A90G A98G A126G	0.3
A24G A52G A66G U70C U124C	0.5
U39C A56G A117U U131A U132C	1.31
A23G A27U A82C A117C	0.07
A5G U9C A89G A94G U100C	1.48
U2C U38C A59U A86U	1.26

Variant	self-cleavage
U108C U127A U139A	0.01
A67G A96G U120A A125G	0.25
A24G U43C U49C A64G	1.28
A27G A114U U122C	0.03
A11G A24G U97C A98U A118G	0.35
U2A U57A U124C	1.18
A51G A52U A78G U124A	0.13
U3C A24G A52G G73A G83U U87A A94U U132A	0.1
A24G A47G A51G A90G	1.02
A66G A89G U122G	2.37
A51U A52G A92G A114G	0.35
A56U C113U G119U U124C	0.11
A4G A67G A117G	1.06
U19C A59G A68G A94U A116G	0.68
G48A A51U U120C A126U	0.47
A23G U49C A89G	1.22
U43C A114G A116G U139C	0.03
G73A A94G U130C	0.17
U19C A23G U43C G58C A91G	0.77
U26C A64G A68G A129G	0.68
A51G U70C U87C	0.63
U49C A64G U100A U122C	1.08
A27G A94G U100C A117G	2.07
C40A U43G A55G A59U A90G A98G U127C	0.68
A60G A63G A91G A111G	0.03

Variant	self-cleavage
U12C U38C A55G G83C	0.25
A5C U19A A59G	1.51
U43A A47G U49C U72G A96G U127C	0.15
A24G A59G A91G	0.9
G65U U70C A89G A111G A126G	0.05
A24G U102C U127C	0.77
A36U A82G U108C	0.01
A5G A56G U87A	0.94
A24G U49A A64U	2.19
U12C C16G A140G	0.29
U19A A51G U57C A118G	0.84
U2G U43C A62G A86G U127C A129G	0.15
U57C A91G U130C	0.54
U19A A22G U37C A56G	1.1
A24C A54G A68G A82U U132C	0.1
A5G C45A A82U U122C U130C	0.12
A55G A68G A129G	1.85
A33G A47G A60G A95G	0.86
A18G A23G A86G U100C A110G U127C	0.04
C17G G44U A62C G74A	0.16
A30U U103C A110G	0.17
A22G A51U A118G	0.98
A23G A63G U70C A92G	0.12
A23G A62G A92G	0.54
A30U A63U G79A A110G A129G	0.01

Variant	self-cleavage
U57A A67G U87A G136A	1.57
A54U A67G A91G A134G	2.08
A22G U57A A118G	1.12
A5U A60U A64G A78U	0.42
A22G U38C A56G A90G A110G	0.08
A63G A125G U127C	0.31
A92G A94U U108C	0.05
A55G A82G A126G	0.24
U2C U43A A94G U103C U131C	0.07
A30U U43A G115A	0.17
A47G A60G U87A A117U	0.47
A69C U70C U108C A116G A117G	0
G15C A30G U39A A47U A118G U132A	0.63
A27G A33C A114G A118G	0.67
A27G U49C A98G C113A	0.01
U102C A117G U132C	2.24
A63G A114G U131C	0.03
A5G A36U A62G G83A U122C	1.16
A24U A30U G50A U120C	0.82
U103C A126U U131C	1.16
U26C U70C A110G	0.11
U19A A59G A86U A98G	1.46
A90G A116G U131C G136A G137A	0.13
U102A G115C A116G U122C	0.05
U39C U43C A135G	0

Variant	self-cleavage
A22U A55G A66G A78C A125G	0.05
A23G U57C A111G A129G	0.01
U38C A60G A66G	1.48
U37A G50A A54G A64G	1.29
U72G U108C U120C	0.01
U43A A54G A117U	1.13
A51G G75C U102C U130C	0.17
A5G G29A A67G	0.88
A13C A27U A114G	1.08
A5G A91U A110G	0.4
A62G A64G A111U	0.14
A67U A68G A91G	1.2
A24G A36U A69G A89G U100A	0.33
A5G U39C A59G	0.54
A36U U37C U38C U139C	1.03
A47C A54G U100C U130C	2.76
G15A A47G A55G A66G	0.75
A23G A27G U39C U122C	0.75
A5G A51G A66U U127C	0.76
A90C U100C A114G A117G	0.99
A47G A54G A129U	0.21
A78G A90G U103C U132C	0.05
U38C A54G U57C A63G A94U	1.49
A47G A110G U127C	0.02
A54U A56G A94G	1.78
